In a collection of fitness landscapes (doi:10.1016/j.celrep.2020.107928):
Whole data set: some 81,000 sequences, median “one-hybrid fitness for binding parS DNA” near -0.17, cut for the highest 2% near 0.51. The list shows a part of the results.

B1: Caulobacter ParB omega fusion; a variant is named by its letters at X, in order, B8GW30 (parent)
chain: MESVVVGEPGMSEGRRGLGRGLSALLGEVDAAPAQAPGEQLGGSREAPIEILQRNPDQPRRTFREEDLEDLSNSIREKGVLQPILVRPSPDTAGEYQIVAGERAWRAAQRAGLKTVPIMVRELDDLAVLEIGIIENVQRADLNVLEEALSYKVLMEKFERTQENIAQTIGKSXSHVANXMRLLXLPDEVQSYLVSGELTAXHARAIAAAADPVALAKQIIEGGLSVRETEALARKAPNLSAGKSKGGRPPRVKDTDTQALESDLSSVLGLDVSIDHRGSTGTLTITYATLEQLDDLCNRLTRGI

Variants of: B1
Experiment: one-hybrid fitness for binding parS DNA (scaled: cognate 1, non-cognate 0); higher = stronger binding
Conditions: with parS DNA site
In short: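 Caulobacter ParB libraries with four specificity codons randomised were screened by bacterial one-hybrid selection in the E. coli USO strain, using a HIS3 reporter whose site lies 19 bp from the promoter. Selection ran for 48 hours at 37°C on M9 lacking histidine, with 0.1 mM IPTG and 5 mM 3-AT. Plasmids were Illumina-sequenced before and after selection, three replicate libraries were pooled, and variants with under 10 reads were dropped. Fitness is the log change in each variant's read ratio to wild type, rescaled against the cognate and non-cognate sites.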

one-hybrid fitness for binding parS DNA, 0.592:
RSHA

one-hybrid fitness for binding parS DNA, ≤ 0.2:
ESCV
ESES
SYQA
YFSG
GNCN
PKSY
IEPT
IHKP
SKIT
WLWC
RGSM
PSIG
YQGM
QLNW
QRSM
QHIN
LRLY
YSGR
HPDM
FLMC
PSAI
PITN
NKPL
VAYT
IPKL
LGYT
RPYF
RRSP
QKLV
LEGL
EVMG
TDKR
IRHR
RMSR
VFLK
HPTY
SWHC
THSN
TIPF
RIMQ
AHRW
QYAM
QPLM
GYYS
HTLA
YNHF
SSAF
MNYL
LPYK
LHYC
QYPV
PRTK
DCRK
MYTN
QSPS
HVRA
KKAE
IAYR
TMKF
MYHE
HVMV
GLSN
WRPV
HRDR
QMLP
SSNH
DVMY
GCAG
VKDF
LHRH
QRWA
PSYI
DTTT
TFVS
NVSK
LWVC
MEWG
VPQA
LFSR
QTTW
APYT
VPLM
TCTR
CYMY
LINV
QVCC
CCAL
VHKG
RNVK
PDEY
ARRT
QYKH
ARHD
IARF
ERRG
FIVI
PGCS
AVMC
APPN
QFNN
VSLP
PTYT
WFNG
WRYW
WKDS
QNGE
MHTF
KVDP
WCDC
ESGC
SVKC
EYAY
SMLH
RDAS
CMPC
HDQR
WSYE
DHHT
IIGA
YRIC
NGAK
HKPG
VDIR
LKRF
DIKV
FGRT
PGGW
FHVS
LIMC
AECC
YTTI
VNAW
EHMS
ESAG
GHTW
VQMS
QSFN
DHKG
FSDS
EFIS
IRSM
HIFS
HMQC
HYSV
LCDR
DTWL
CVSD

one-hybrid fitness for binding parS DNA, 0.357:
RFYN

one-hybrid fitness for binding parS DNA, 0.269:
RMHF

one-hybrid fitness for binding parS DNA, 0.441:
RRQY

one-hybrid fitness for binding parS DNA, 0.558:
RSFA

one-hybrid fitness for binding parS DNA, 0.278:
RLGF
